For 24 molecules, mutation enrichment score results are on record in the supplement of paper PMC11369174, “Proteome-scale characterisation of motif-based interactome rewiring by disease mutations” (Molecular Systems Biology, 2024).

Some of the results follow. This is a noisy data set.

Chain of USP7_MATH-TRAF__Q93009_53_206 (chain, as listed by the source): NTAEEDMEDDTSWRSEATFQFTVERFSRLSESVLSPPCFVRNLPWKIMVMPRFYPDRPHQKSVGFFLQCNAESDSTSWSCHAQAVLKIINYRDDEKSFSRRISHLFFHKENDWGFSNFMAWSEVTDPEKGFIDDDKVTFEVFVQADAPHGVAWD

One test concerns the target USP7_MATH-TRAF__Q93009_53_206. Put plainly: mutation enrichment score (mutant vs wild-type peptide binding to bait); baits are purified protein domains named by gene / domain / UniProt id / residues; peptides come from disordered regions of human proteins; higher = mutation enhances binding relative to wild type. To be noted: number of wild-type / mutant comparisons summed (bounds the score): 10; paper call: no_effect; wild-type window: ….
With FSEKLRASTVMYHPEGESSTMPFFSTNSSLNLPVLEVGRTE [T163M T163M], the mutation enrichment score came to 1.

Take ITESRPTPAPTATPTAPSPLEATAGPSYPRPVIPPVSTPGQ [Q248E Q248E]: the mutation enrichment score was 2. Same read-out and setting: as for VEAQQSHGSSACSQPHGSVTESQGSSSQSQGISSSSTSTMP [Q27E Q27E], the figure is 3; as for PSGMRSLAEPGCPTHGSAESLSTAASPTTSVSSLTERADTG [P297L P297L], -3.2; as for KPKLKAGGSVESLRSSLSGQNSMSGQTVSTTDSSTSNRESV [S519N S519N], -5. For MQGVELQPRLSGSDLGGHSSVLERLEKIIREQGDLQEKSLE [L2487V L2487V], the mutation enrichment score was -4.

Staying with this test, now noted: number of wild-type / mutant comparisons summed (bounds the score): 10; paper call: enhanced; wild-type window: ….
Consider KYPRPSSVPPSPSGSQASSPHSSDVEDEVEDERYDEEEEAE [Q655H Q655H], for which the mutation enrichment score is 4.8. Still for that read-out and setting: as for SGSHLSNSFAEPSRSNGSMVQHSSSPYVVYPSDKPFLNSDL [R30Q R30Q], the figure is 5.1.

The test is the same for the next values; noted with them: number of wild-type / mutant comparisons summed (bounds the score): 5; paper call: no_effect; wild-type window: ….
As for SSELSTPEKPPHQRAGPFSSWWETTMGEASASIPTTVGSLP [R1062W R1062W], the mutation enrichment score came out at 1.6. On to MASSTPSSSATSSNAGADPNCTNLRPTTYDTW [S12C S12C], for which the mutation enrichment score turned out to be 1.2. The same measure, in the same setting: for PAKFDQIEQFNDHMRMHVSDR [G741R G741R] the value was -2; for MSSSNVEVFIPVSQGNTNGFMATASNDLKAFT [V12M V12M], -1.3; for TPGVGVGVLGTAIGPVGPVTSIGPIGPIVPFTPIGPIGPIG [P497S P497S], 3.

Consider AKEKESLQKDTADSSAAAAAGHSAQVGDPEMKNLPDTKAIT [E3413G E3413G], for which the mutation enrichment score was determined as 2. Turning to RLTGLLDREVQAGRQALAAAGGSWGPGPSSLTVPAIVVDEE [R1261G R1261G], the mutation enrichment score worked out at 4. Same read-out and setting: for MIGLTLFVGVVIANFNENKGPALLTVDQRRWEDLKSRLKIA [T1165P T1165P] the value was 0.93; for TSPMMDVPSVSDHSQQVVDSSFSDLGSIESTTENYENPSSY [G1549S G1549S], 3. PGRPCTRLQPAGSVSSTPLSPPCSSVPSSPSFSPTEQKTHL [T62P T62P]: the mutation enrichment score was determined as 2.

For the molecule QRIYFDLDPTGQFLVSGSTSRAVSVWDTDGPGNDGKPEPVL [G435R G435R], the mutation enrichment score is -2. As to GNTSSLNPLAVGFVQTPPVILSAHIQDERVLEQAEGKVEEP [S2158L S2158L], the mutation enrichment score is -3. HLTVGQAAAGGSGNLLTERSAFTDSQLGNADMEMTLERAVS [T338A T338A]: the mutation enrichment score was -2.9. PMFKRLLANAECQEGQSVCFQIRVSGIPPPTLKWEKDGQPL [E32742Q E32742Q]: the mutation enrichment score was determined as 3. As to RVTATNTAGSTSCQAHLQVECLRYKKQEFKSKEEHERHVQK [R32814C R32814C], the mutation enrichment score came to 2.

The test is the same for the next values; noted with them: number of wild-type / mutant comparisons summed (bounds the score): 10; paper call: diminished; wild-type window: ….
As to SSEEMRPIKTEPGLSSHYGHGSSVSQTFSVSAMSGHGPSIH [S377G S377G], the mutation enrichment score was -4.2.
